The target in the assay is single chain urokinase type plasminogen activator (scuPA) (UniProt P00749). Kind of assay: cell-based or functional assay.

B1: soluble urokinase plasminogen activator receptor (suPAR) (receptor)
chain: not shown
On to B1, for which the “enhancement of scuPA-mediated fibrinolysis (plasma clot)” value was at most 14 fold.

The values are drawn from US6911316 (THROMBOTECH, dated 2005).
